Laboratory results from PMC4336329 (PLoS ONE, 2015).
Among all 310,000 compounds or so, about 14,000 (4.5%) showed an effect of 50% or more. Effects have a minus sign here. The list shows a part of the results.

target: human ether-à-go-go-related gene (hERG) potassium channel (human, UniProt Q12809); experiment: primary screen, population patch clamp on CHO cells stably expressing hERG
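Note: peak tail current of the secondary pulse compared with the same well before compound.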

Sequence of human ether-à-go-go-related gene (hERG) potassium channel (Q12809 whole entry, looked up): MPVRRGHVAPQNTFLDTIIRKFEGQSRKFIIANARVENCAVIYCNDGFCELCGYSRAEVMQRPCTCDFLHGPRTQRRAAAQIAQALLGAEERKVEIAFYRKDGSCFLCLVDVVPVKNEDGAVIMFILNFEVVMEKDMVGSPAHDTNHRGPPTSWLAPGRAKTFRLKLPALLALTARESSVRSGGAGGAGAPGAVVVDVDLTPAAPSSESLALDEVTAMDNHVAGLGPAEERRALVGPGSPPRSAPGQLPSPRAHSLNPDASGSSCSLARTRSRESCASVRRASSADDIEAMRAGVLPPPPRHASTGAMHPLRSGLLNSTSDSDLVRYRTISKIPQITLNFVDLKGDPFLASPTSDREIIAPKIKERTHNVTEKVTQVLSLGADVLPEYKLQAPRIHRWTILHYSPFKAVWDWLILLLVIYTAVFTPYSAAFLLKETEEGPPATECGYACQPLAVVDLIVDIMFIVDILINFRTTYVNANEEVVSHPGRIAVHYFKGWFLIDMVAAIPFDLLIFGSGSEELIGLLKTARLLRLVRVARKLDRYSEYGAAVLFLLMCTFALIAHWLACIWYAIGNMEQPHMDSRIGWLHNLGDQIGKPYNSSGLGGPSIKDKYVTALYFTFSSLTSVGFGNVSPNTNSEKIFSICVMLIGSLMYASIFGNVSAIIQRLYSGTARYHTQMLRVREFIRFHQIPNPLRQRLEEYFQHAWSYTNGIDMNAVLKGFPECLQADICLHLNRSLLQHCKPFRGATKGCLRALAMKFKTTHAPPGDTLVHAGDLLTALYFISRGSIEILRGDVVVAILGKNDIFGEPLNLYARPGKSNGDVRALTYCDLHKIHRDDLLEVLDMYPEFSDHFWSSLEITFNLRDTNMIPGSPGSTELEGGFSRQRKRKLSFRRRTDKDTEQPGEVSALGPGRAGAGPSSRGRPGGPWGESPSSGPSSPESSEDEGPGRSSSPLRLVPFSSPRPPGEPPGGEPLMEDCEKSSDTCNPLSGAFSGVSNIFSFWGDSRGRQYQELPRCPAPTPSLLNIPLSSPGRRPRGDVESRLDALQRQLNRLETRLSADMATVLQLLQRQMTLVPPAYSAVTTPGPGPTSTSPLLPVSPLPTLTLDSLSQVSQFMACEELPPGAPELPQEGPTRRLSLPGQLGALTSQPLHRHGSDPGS

Compared with Cc1nn(-c2ccccc2)c(-c2ccccc2[N+](=O)[O-])c1C(=O)O, c1ccc(-c2nnc(-c3ccncc3)nc2-c2ccccc2)cc1 is lower in “hERG current change (%, negative = inhibition) at 10uM” value: 15.1% for the first, -24.5% for the second.

First: O=C(Nc1ccnn1C1CCN(Cc2ccccc2OCCO)CC1)c1cccc(F)c1
Second: O=C(c1ccc(OC2CCN(Cc3cccc(F)c3)CC2)cc1)N1CCCCC1
The “hERG current change (%, negative = inhibition) at 10uM” value of the first is lower: -34.8% for the first, -23.4% for the second.

Going from CCNC(=O)N1CCN(S(=O)(=O)c2ccc3c(c2)OCCCO3)CC1 to O=S(=O)(c1cccc(-c2nnco2)c1)N1CCOCC1, the “hERG current change (%, negative = inhibition) at 10uM” value falls from 10.6% to 8.96%.

Compared with Cc1cc(C)c2nc(Cl)c(Cl)nc2c1, Cc1ccc(OCc2nnc(SCC(=O)Nc3cc(C)on3)n2C)cc1 is higher in “hERG current change (%, negative = inhibition) at 10uM” value: 12.5% for the first, 20.7% for the second.

First: O=C(NC(=S)Nc1ccc(CN2CCOCC2)cc1)c1ccc(-c2ccc(Cl)cc2)o1
Second: COc1ccc(-c2nc(S(=O)(=O)c3ccccc3)c(N3CCOCC3)o2)cc1
The “hERG current change (%, negative = inhibition) at 10uM” value of the first is lower: 1.86% for the first, 24% for the second.

First: CN(CCc1ccccn1)C(=O)CCC1CCCN(C(=O)c2n[nH]c3c2CCCC3)C1 (stereo not shown)
Second: CC(=O)C[C@H](O)CC(=O)[C@@H]1OC(=O)CCCCCCc2ccccc21
The “hERG current change (%, negative = inhibition) at 10uM” value of the first is higher: 22.9% for the first, 0.558% for the second.

First: COc1ccccc1C(=O)NCCC(=O)N(C)CC(=O)Nc1ccccc1Br
Second: CCOC(=O)CNC(=O)/C(=C\c1ccc(F)cc1)NC(=O)c1ccccc1
The “hERG current change (%, negative = inhibition) at 10uM” value of the first is higher: -13% for the first, -26.4% for the second.

Going from O=C(Nc1ccc(S(=O)(=O)Nc2ccccc2)cc1)C1COc2ccccc2O1 (stereo not shown) to CC(NC(=O)c1ccc(S(=O)(=O)Nc2ccccc2)cc1)c1ccc(S(N)(=O)=O)cc1 (stereo not shown), the “hERG current change (%, negative = inhibition) at 10uM” value rises from -4.98% to 1.11%.

First: COc1ccccc1N(CC(=O)NC(C)(C)C)S(=O)(=O)c1cccs1
Second: CCCc1nnc(NC(=O)c2ccc(S(=O)(=O)N(C)c3ccccc3OC)cc2)s1
The “hERG current change (%, negative = inhibition) at 10uM” value of the first is lower: -19.3% for the first, 4.41% for the second.

Going from O=C1c2cccnc2C(Nc2ccc(F)c(Cl)c2)N1Cc1cccs1 (stereo not shown) to Cc1cc(=O)oc2c(C)c(OCC(=O)N3CCN(Cc4ccccc4)CC3)ccc12, the “hERG current change (%, negative = inhibition) at 10uM” value falls from 7.7% to -44%.

Going from O=C(CCC(=O)c1cccs1)NC1CCCCCC1 to CCOc1ccc2oc(C(=O)OCC(=O)NC3CCCC3)c(C)c2c1, the “hERG current change (%, negative = inhibition) at 10uM” value rises from -4.2% to 11.1%.

Compared with COC(=O)C1=C(c2cc3ccccc3o2)C[C@@H]2CC[C@H]1N2C(=O)N1CCCCC1, O=C(CN1CCN(C(=O)c2c(F)cccc2F)CC1)Nc1ccccc1F is higher in “hERG current change (%, negative = inhibition) at 10uM” value: -21.4% for the first, -11.3% for the second.

Compared with CCO[C@H]1OC(C(=O)O)=C[C@@H](c2ccccc2)[C@@H]1CCCO, CC(C)C1COC(c2cccc3ccccc23)=N1 (stereo not shown) is higher in “hERG current change (%, negative = inhibition) at 10uM” value: -4.36% for the first, 4.64% for the second.

First: CCOc1ccc(CCNC(=O)CSc2ncn[nH]2)cc1OCC
Second: COc1ccc(-c2nnc(SCC(=O)NCc3cccs3)n2C)cc1
The “hERG current change (%, negative = inhibition) at 10uM” value of the first is lower: -8.55% for the first, -1.49% for the second.

Compared with CCC(C)NS(=O)(=O)c1ccc(NC(=O)c2ccc([N+](=O)[O-])cc2Cl)cc1 (stereo not shown), COc1ccc(NC(=O)Cn2nnc(C(=O)NCc3cccc(OC)c3)c2N)cc1 is higher in “hERG current change (%, negative = inhibition) at 10uM” value: -88.7% for the first, 10.6% for the second.

Going from CC(C)C(C)(C#N)NC(=O)CSc1nc(C2CCCCC2)n(-c2ccccc2)n1 (stereo not shown) to O=S(=O)([O-])CCC[N+]1(CC#Cc2ccccc2)CCCCC1, the “hERG current change (%, negative = inhibition) at 10uM” value rises from -17.8% to 33.8%.

First: COCCN(C(=O)Cc1coc2cc(C)c(C)cc12)c1c(N)n(Cc2ccccc2)c(=O)[nH]c1=O
Second: COc1ccccc1NS(=O)(=O)c1cccc(C(=O)NCC(C)(C)N2CCOCC2)c1
The “hERG current change (%, negative = inhibition) at 10uM” value of the first is higher: -2.52% for the first, -4.29% for the second.

Going from N/C(=N\N=C\c1ccnc2ccccc12)SC1CC(=O)N(c2ccc(Br)cc2)C1=O (stereo not shown) to CC1CC(=O)N(c2ccc(NCCc3ccc(O)cc3)c([N+](=O)[O-])c2)C1=O (stereo not shown), the “hERG current change (%, negative = inhibition) at 10uM” value falls from 0.637% to -3.21%.

Going from CNS(=O)(=O)c1ccc(C)c(S(=O)(=O)NC)c1 to COc1ccc(C)cc1S(=O)(=O)N(CC(=O)O)c1ccc(F)cc1, the “hERG current change (%, negative = inhibition) at 10uM” value falls from 18.9% to 6.59%.

First: COC(=O)c1cccc(NC(=O)c2cc3sccc3n2C)c1
Second: Cc1ccc(/C(N)=N/OC(=O)c2cccc(Cn3cc(C(F)(F)F)ccc3=O)c2)cc1
The “hERG current change (%, negative = inhibition) at 10uM” value of the first is higher: -5.25% for the first, -7.03% for the second.

First: COc1ccc(-c2csc(NC(=O)c3ccccc3NS(=O)(=O)c3ccc(F)c(F)c3)n2)cc1
Second: COc1ccc(C)cc1NC(=O)CSc1nnc2ccc(-c3cccnc3)nn12
The “hERG current change (%, negative = inhibition) at 10uM” value of the first is higher: 19.3% for the first, -35.1% for the second.

Going from CCc1nc(C)ccc1OC(=O)C12CC3CC(CC(C3)C1)C2.Cl to CCOC(=O)c1c(NC(=O)C2C3C=CC(C3)C2C(=O)O)sc2c1CCC(C)C2 (stereo not shown), the “hERG current change (%, negative = inhibition) at 10uM” value falls from -4.09% to -6.93%.

Compared with O=C(COC(=O)c1ncc(Cl)c(Cl)c1Cl)Nc1ccccc1OC(F)F, N#Cc1ccc(COC(=O)c2cnc3ccccc3n2)cc1 is lower in “hERG current change (%, negative = inhibition) at 10uM” value: 6.21% for the first, -8.51% for the second.

Compared with COc1ccc(/C=C/C(=O)OCC(=O)NC(=O)NC(C)(C)C)cc1, Cc1ccc(C)c(SCC(=O)OCC(=O)N2CC(C)OC(C)C2)c1 (stereo not shown) is lower in “hERG current change (%, negative = inhibition) at 10uM” value: 11.9% for the first, -2.98% for the second.

Compared with Cc1ccc(-c2ccc(=O)n(CCC(=O)NCCN3CCCCC3C)n2)cc1 (stereo not shown), COc1cccc(N2CCN(c3nc(C)cc(=O)[nH]3)CC2)c1 is higher in “hERG current change (%, negative = inhibition) at 10uM” value: -58.7% for the first, 13.2% for the second.

Compared with CC(CCC(=O)O)C1CC[C@H]2C3CCC4CC(=O)CCC4(C)[C@H]3CC(=O)C12C (stereo partly shown), O=C(c1ccc(Br)cc1)N(Cc1ccco1)C1CCS(=O)(=O)C1 (stereo not shown) is lower in “hERG current change (%, negative = inhibition) at 10uM” value: -8.19% for the first, -10.3% for the second.

Compared with CCCCN(CC)Cc1ccc(CNC(=S)Nc2c(C)cc(C)cc2C)o1, O=C(Nc1ccc2c(c1)OCCO2)c1cnccn1 is higher in “hERG current change (%, negative = inhibition) at 10uM” value: -54.8% for the first, 10.7% for the second.

O=C(CSc1nncs1)NCCNC(=O)CSc1nncs1 was tested, and the “hERG current change (%, negative = inhibition) at 10uM” value was 23.1%.
